Test results taken from article PMC4336329 (PLoS ONE, 2015).
Screen size: about 310,000 compounds; about 14,000 (4.5%) showed an effect of 50% or more. Effects have a minus sign here. Some of the results follow.

target: human ether-à-go-go-related gene (hERG) potassium channel (human, UniProt Q12809); experiment: primary screen, population patch clamp on CHO cells stably expressing hERG
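Further: peak tail current of the secondary pulse compared with the same well before compound.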

Sequence of human ether-à-go-go-related gene (hERG) potassium channel (Q12809 whole entry, looked up): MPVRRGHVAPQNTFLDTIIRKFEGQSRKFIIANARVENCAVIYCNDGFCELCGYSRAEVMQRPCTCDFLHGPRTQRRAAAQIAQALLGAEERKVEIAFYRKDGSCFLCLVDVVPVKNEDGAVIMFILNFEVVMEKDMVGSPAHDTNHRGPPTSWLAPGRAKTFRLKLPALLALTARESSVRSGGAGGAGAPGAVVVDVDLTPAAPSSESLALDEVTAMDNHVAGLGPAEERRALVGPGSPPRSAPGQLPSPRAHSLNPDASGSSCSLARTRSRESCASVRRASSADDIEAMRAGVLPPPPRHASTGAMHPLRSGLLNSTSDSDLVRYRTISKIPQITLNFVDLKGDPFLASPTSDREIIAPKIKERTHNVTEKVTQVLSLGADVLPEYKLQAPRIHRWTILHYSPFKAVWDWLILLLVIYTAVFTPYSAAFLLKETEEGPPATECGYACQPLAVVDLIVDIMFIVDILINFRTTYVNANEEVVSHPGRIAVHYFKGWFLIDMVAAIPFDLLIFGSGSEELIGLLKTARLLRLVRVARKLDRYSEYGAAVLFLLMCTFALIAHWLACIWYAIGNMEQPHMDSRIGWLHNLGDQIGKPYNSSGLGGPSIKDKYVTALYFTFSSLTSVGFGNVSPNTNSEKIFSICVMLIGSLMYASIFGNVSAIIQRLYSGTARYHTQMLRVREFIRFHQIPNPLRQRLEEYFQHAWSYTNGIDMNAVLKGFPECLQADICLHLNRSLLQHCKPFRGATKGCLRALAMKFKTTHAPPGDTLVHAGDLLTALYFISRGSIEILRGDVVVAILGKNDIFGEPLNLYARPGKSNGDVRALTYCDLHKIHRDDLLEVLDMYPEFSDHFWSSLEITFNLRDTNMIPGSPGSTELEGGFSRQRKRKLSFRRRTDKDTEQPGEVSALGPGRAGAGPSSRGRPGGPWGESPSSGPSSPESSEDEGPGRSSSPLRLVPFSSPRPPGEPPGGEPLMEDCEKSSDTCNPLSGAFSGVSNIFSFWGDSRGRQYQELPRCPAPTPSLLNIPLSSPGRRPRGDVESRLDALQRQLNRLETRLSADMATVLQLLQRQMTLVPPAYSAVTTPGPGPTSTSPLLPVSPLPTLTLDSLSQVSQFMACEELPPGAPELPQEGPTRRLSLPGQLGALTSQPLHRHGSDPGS

SMILES | hERG current change (%, negative = inhibition) at 10uM
O=c1oc2ccccc2c(O)c1CN1CCCCC1 | 13.9%
O=[N+]([O-])c1ccc(C2CCCC/C2=N/OCc2ccc(F)cc2)c([N+](=O)[O-])c1 (centres unmarked) | -7.99%
Cc1ccc(NC(=O)CC2=NC(=O)C(CC(=O)Nc3ccccc3C)S2)cc1 (centres unmarked) | 20.5%
COC(=O)CCN(C(=O)c1ccc(OC(C)=O)cc1)c1ccccn1 | 9.21%
O=C(O)c1cc(Br)ccc1NS(=O)(=O)c1cccc2nsnc12 | 13.9%
O=C(CN1CCOCC1)Nc1ccc(Cl)cc1 | -1.12%
CCOC(=O)CCCCC(=O)c1[nH]c(=O)[nH]c1CSc1nc2ccccc2[nH]1 | 23%
CC(=O)Nc1sc2c(c1CN1CCN(c3ccc(F)cc3)CC1)CCCC2 | -6.73%
Cc1n(-c2ccccc2)c2ccc(Cl)cc2[n+]1CCO.[I-] | 11.2%
NS(=O)(=O)c1ccc(NC(=O)COC(=O)CCC2CCCC2)cc1 | 41.6%
CSc1nc2ccc(NC(=O)c3nn(C(C)C)c(=O)c4ccccc34)cc2s1 | -1.98%
Cc1ccc(CN2CCN(/N=C/c3ccc(C(=O)O)cc3)CC2)c(C)c1 | 5.78%
CC(=O)c1cccc(CN2CCC(C(=O)Nc3cccc(-c4ccn[nH]4)c3)CC2)c1 | -3.45%
CC1CCN(C(=O)COC(=O)c2cc3ccccc3cc2O)CC1 | 3.92%
Cc1ccccc1C(=O)N1CCC(C(=O)N(CC(C)C)c2c(N)n(Cc3ccccc3)c(=O)[nH]c2=O)CC1 | 11.9%
CCOC(=O)c1ccc(NC(=S)N2CCN(c3ccccn3)CC2)cc1 | 17.6%
CCN1C(=O)[C@H]2[C@@H](c3ccc(C)cc3)N3C(=O)N(c4ccc(OC)cc4)C(=O)[C@@]3(Cc3ccc(Cl)cc3)[C@H]2C1=O | 5.97%
CCOc1c2ccc(C(=O)NCc3ccc(OC)cc3)cc2nn1CCOC | 8.44%
COc1ccc(/C=N/NC(=O)C2CCN(c3ncc(C(F)(F)F)cc3Cl)CC2)cc1 | -14.2%

SMILES | hERG current change (%, negative = inhibition) at 10uM
O=C(CN1CCN(S(=O)(=O)c2ccccc2F)CC1)NCC1(N2CCOCC2)CCCCC1 | -24.4%
COc1ccc(/C=C(\NC(=O)c2cccs2)C(=O)N2CCOCC2)cc1OC | 3.19%
CN(C)S(=O)(=O)c1ccc(NC(=O)C2CCCN(C(=O)c3ccc(Cl)cc3)C2)cc1 (centres unmarked) | -6.75%
CCOC(=O)c1nnsc1NC(=O)Nc1ccc(OC)cc1 | 17.2%
Cc1cccc2nc(Cn3c(=O)n(CCC(=O)NCc4ccco4)c(=O)c4sccc43)cc(=O)n12 | -5.78%
CCN(CC)CCN(Cc1cc2ccc(C)cc2[nH]c1=O)C(=O)Nc1ccc(Cl)cc1 | -77.6%
N#CCCN(C(=O)COC(=O)COc1ccccc1Cc1ccccc1)c1ccccc1 | 15%
Cn1c(SCc2cccc(F)c2)nnc1-c1cnccn1 | 1.32%
CC(C)N(C)CCOC(=O)/C=C/c1ccccc1.Cl | -4.98%
COc1cccc(CN2CCNC(=O)C2CC(=O)NC2CCOCC2)c1OC (centres unmarked) | 29.1%
CCCn1c(=N)c(C(=O)NC2CCCC2)cc2c(=O)n3cccc(C)c3nc21 | -77.4%
Cc1ccc(C(=O)N2CCN(S(=O)(=O)c3ccc(C)cc3)CC2)cc1 | -20.1%
COc1ccccc1N(CC(=O)Nc1ccccc1)S(=O)(=O)c1cccs1 | -1.84%
Cc1ccc2nc(COc3ccc(Cl)cc3)cc(=O)n2c1 | 15%
Cc1ccc(-c2nc3ccccc3c(=O)n2-c2ncccc2C)cc1 | -20.1%
O=C(Nc1ccnc(-c2ccncc2)n1)c1ccccc1Cl | 26.8%
CN(C)/C=N/c1sc2c(c1C#N)CCCC2 | -2.74%
CCC(C)(C)n1nnnc1C(c1cccs1)N1CC=C(c2ccc(F)cc2)CC1 (centres unmarked) | -5.72%
COC(=O)/C=C1/SC(=NC(=O)c2ccc(Cl)cc2)NC1=O | 26.7%

SMILES | hERG current change (%, negative = inhibition) at 10uM
O=C(NCCCn1ccnc1)c1ccc(OCC(F)(F)F)cc1 | -32%
CCCC(=O)Nc1cc(Cl)ccc1C | 16.5%
Cc1ccc(C(=O)Nc2cccnc2N2CCN(C)CC2)cc1 | -5.47%
C[C@]12CCC(=O)C=C1CCC1C2CC[C@@]2(C)C1CC[C@@]2(O)CC#N (some centres unmarked) | -59.8%
Cc1cc(Nc2ccccc2)n(C(=O)c2ccccc2)n1 | -0.73%
COc1ccc(-c2nnc(SCC(=O)NC3CCCCC3)o2)cc1 | -8.16%
O=C(NCCN1CCOCC1)c1ccc(Cl)nc1Cl | -2.02%
COc1ccc(CCNC(=O)C2CC(=O)N(c3ccc(Br)cc3)C2)cc1OC (centres unmarked) | -34%
CCOC(=O)CN(C(=O)CSc1nnc(COc2ccc(OC)cc2)n1C)c1ccccc1 | -24.5%
CC(=O)N1CCN(C(=O)c2ccccc2NS(=O)(=O)c2ccc(F)cc2)CC1 | -0.557%
COC(=O)c1cccc(N/C=C(\[N+](=O)[O-])S(=O)(=O)c2ccccc2)c1 | 8.62%
CCOC(=O)c1sc(NC(=O)CN2CCCC2)c(C(=O)OCC)c1C | -6.37%
O=C(c1cc(-c2ccc(Br)cc2)n[nH]1)N1CCN(C(=O)c2ccccc2Br)CC1 | -32.4%
COC(=O)c1c(C)cc(O)c(C=O)c1O | 8.62%
COC(=O)C1CCN(S(=O)(=O)Cc2ccccc2)CC1 | 13.5%
Cc1cc(C(=O)N/N=C/c2c(C)[nH]c3ccccc23)n[nH]1 | 19.8%
CSc1ccc(-c2nnn(CC(=O)NCc3ccccc3)n2)cc1 | 10.8%
CCc1ccc(NC(=O)Nc2c(C)n(C)n(-c3ccccc3)c2=O)cc1 | 3.74%
